The supplement of paper PMC9151546
Many values rest on one well or one pass, so single values are uncertain.

Tests used:
CHO-K1 [1] = experiment: micronucleus frequency (% of nucleated events); higher = more micronuclei (genotoxic)
CHO-K1 [2] = experiment: relative survival (nuclei to bead ratio vs DMSO control) (% of vehicle control); higher = more surviving cells
Experimental: (§1)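 Flow-cytometric in vitro micronucleus assay (Litron MicroFlow) in CHO-K1 cells in 96-well plates, 19 concentrations (4.5-200 µM, n=1 per concentration). Without S9, cells were exposed for 24 h and sampled at 48 h. With Aroclor 1254-induced rat liver S9, cells were exposed for 3-4 h and sampled at 27-28 h. Read-outs are %MN and %hypodiploid nuclei relative to nucleated events, and relative survival as the nuclei-to-bead ratio versus the 1% DMSO vehicle control (x100).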

CHO-K1 [3] = experiment: hypodiploid nuclei frequency (% of nucleated events); higher = more hypodiploid events (aneugenic)
Experimental: as §1
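For hypodiploid nuclei frequency (% of nucleated events) in this document: hypodiploid nuclei gated on a flow cytometer with 488 nm excitation after SYTOX Green staining, cultures at 37 °C, positive controls vinblastine without S9 and cyclophosphamide with S9.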
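For micronucleus frequency (% of nucleated events) in this document: cells lysed with nuclei stained by SYTOX Green, then micronucleus-gated events counted against nucleated events by flow cytometry with 488 nm excitation.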
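For relative survival (nuclei to bead ratio vs DMSO control) in this document: Lysed-cell nuclei stained with SYTOX Green and counted against counting beads by flow cytometry at 488 nm excitation, with vinblastine (no S9) and cyclophosphamide (plus S9) as positive controls.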

Cn1cnc([N+](=O)[O-])c1Sc1ncnc2[nH]cnc12 [Azathioprine]
Conditions | hypodiploid nuclei frequency, CHO-K1 [3] [%] | micronucleus frequency, CHO-K1 [1] [%] | relative survival, CHO-K1 [2]
concentration: 4.48 (µM), S9 metabolic activation: with S9, exposure time: 3-4 hours | 0.36 | 1.16 | 101
concentration: 4.48 (µM), S9 metabolic activation: without S9, exposure time: 24 hours | 1.4 | 1.68 | 132
concentration: 5.6 (µM), S9 metabolic activation: with S9, exposure time: 3-4 hours | 0.26 | 0.96 | 113
concentration: 5.6 (µM), S9 metabolic activation: without S9, exposure time: 24 hours | 0.98 | 1.56 | 98.7
concentration: 7 (µM), S9 metabolic activation: with S9, exposure time: 3-4 hours | 0.3 | 1.32 | 96.3
concentration: 7 (µM), S9 metabolic activation: without S9, exposure time: 24 hours | 1.34 | 1.6 | 99.4
concentration: 8.75 (µM), S9 metabolic activation: with S9, exposure time: 3-4 hours | 0.36 | 1.48 | 104
concentration: 8.75 (µM), S9 metabolic activation: without S9, exposure time: 24 hours | 1.08 | 1.3 | 109
concentration: 10.9 (µM), S9 metabolic activation: with S9, exposure time: 3-4 hours | 0.32 | 1.16 | 100
concentration: 10.9 (µM), S9 metabolic activation: without S9, exposure time: 24 hours | 1.14 | 1.78 | 105
concentration: 13.7 (µM), S9 metabolic activation: with S9, exposure time: 3-4 hours | 0.5 | 1.54 | 77.8
concentration: 13.7 (µM), S9 metabolic activation: without S9, exposure time: 24 hours | 0.66 | 1.98 | 117
concentration: 17.1 (µM), S9 metabolic activation: with S9, exposure time: 3-4 hours | 0.28 | 2.22 | 85.1
concentration: 17.1 (µM), S9 metabolic activation: without S9, exposure time: 24 hours | 0.86 | 1.9 | 112
concentration: 21.4 (µM), S9 metabolic activation: with S9, exposure time: 3-4 hours | 0.4 | 2.06 | 95.2
concentration: 21.4 (µM), S9 metabolic activation: without S9, exposure time: 24 hours | 1.14 | 2.06 | 96.3
concentration: 26.7 (µM), S9 metabolic activation: with S9, exposure time: 3-4 hours | 0.38 | 1.62 | 110
concentration: 26.7 (µM), S9 metabolic activation: without S9, exposure time: 24 hours | 0.98 | 1.96 | 94.6
concentration: 33.4 (µM), S9 metabolic activation: with S9, exposure time: 3-4 hours | 0.32 | 1.2 | 119
concentration: 33.4 (µM), S9 metabolic activation: without S9, exposure time: 24 hours | 1.42 | 2.02 | 98.7
concentration: 41.7 (µM), S9 metabolic activation: with S9, exposure time: 3-4 hours | 0.46 | 1.12 | 99
concentration: 41.7 (µM), S9 metabolic activation: without S9, exposure time: 24 hours | 1.34 | 1.92 | 121
concentration: 52.2 (µM), S9 metabolic activation: with S9, exposure time: 3-4 hours | 0.36 | 1.3 | 107
concentration: 52.2 (µM), S9 metabolic activation: without S9, exposure time: 24 hours | 1.7 | 1.86 | 93.5
concentration: 65.2 (µM), S9 metabolic activation: with S9, exposure time: 3-4 hours | 0.38 | 1.28 | 88.8
concentration: 65.2 (µM), S9 metabolic activation: without S9, exposure time: 24 hours | 1.66 | 1.88 | 98.7
concentration: 81.5 (µM), S9 metabolic activation: with S9, exposure time: 3-4 hours | 0.28 | 1.42 | 82.7
concentration: 81.5 (µM), S9 metabolic activation: without S9, exposure time: 24 hours | 1.58 | 1.98 | 98.7
concentration: 102 (µM), S9 metabolic activation: with S9, exposure time: 3-4 hours | 0.32 | 1.86 | 71.1
concentration: 102 (µM), S9 metabolic activation: without S9, exposure time: 24 hours | 1.76 | 2.56 | 90.2
concentration: 127 (µM), S9 metabolic activation: with S9, exposure time: 3-4 hours | 0.49 | 1.61 | 79.4
concentration: 127 (µM), S9 metabolic activation: without S9, exposure time: 24 hours | 1.76 | 1.88 | 78.1
concentration: 159 (µM), S9 metabolic activation: with S9, exposure time: 3-4 hours | 0.63 | 1.73 | 79.5
concentration: 159 (µM), S9 metabolic activation: without S9, exposure time: 24 hours | 1.98 | 2.78 | 78.1
concentration: 199 (µM), S9 metabolic activation: with S9, exposure time: 3-4 hours | 0.57 | 2.58 | 68.2
concentration: 199 (µM), S9 metabolic activation: without S9, exposure time: 24 hours | 2.58 | 2.54 | 65.4

c1ccc2cc3c(ccc4ccccc43)cc2c1 [Benz(a)anthracene]
Conditions | hypodiploid nuclei frequency, CHO-K1 [3] [%] | micronucleus frequency, CHO-K1 [1] [%] | relative survival, CHO-K1 [2]
concentration: 4.5 (µM), S9 metabolic activation: with S9, exposure time: 3-4 hours | 0.18 | 1.62 | 130
concentration: 4.5 (µM), S9 metabolic activation: without S9, exposure time: 24 hours | 0.96 | 3.18 | 104
concentration: 5.63 (µM), S9 metabolic activation: with S9, exposure time: 3-4 hours | 0.22 | 1.36 | 117
concentration: 5.63 (µM), S9 metabolic activation: without S9, exposure time: 24 hours | 1.08 | 2.46 | 87.8
concentration: 7.04 (µM), S9 metabolic activation: with S9, exposure time: 3-4 hours | 0.26 | 1.68 | 113
concentration: 7.04 (µM), S9 metabolic activation: without S9, exposure time: 24 hours | 1.06 | 1.92 | 89.2
concentration: 8.8 (µM), S9 metabolic activation: with S9, exposure time: 3-4 hours | 0.34 | 1.78 | 114
concentration: 8.8 (µM), S9 metabolic activation: without S9, exposure time: 24 hours | 1.32 | 1.7 | 112
concentration: 11 (µM), S9 metabolic activation: with S9, exposure time: 3-4 hours | 0.14 | 1.76 | 113
concentration: 11 (µM), S9 metabolic activation: without S9, exposure time: 24 hours | 0.92 | 2.1 | 107
concentration: 13.7 (µM), S9 metabolic activation: with S9, exposure time: 3-4 hours | 0.3 | 2.66 | 103
concentration: 13.7 (µM), S9 metabolic activation: without S9, exposure time: 24 hours | 1.1 | 1.86 | 121
concentration: 17.2 (µM), S9 metabolic activation: with S9, exposure time: 3-4 hours | 0.4 | 3.06 | 86
concentration: 17.2 (µM), S9 metabolic activation: without S9, exposure time: 24 hours | 1.18 | 2.42 | 114
concentration: 21.5 (µM), S9 metabolic activation: with S9, exposure time: 3-4 hours | 0.38 | 3.96 | 55.6
concentration: 21.5 (µM), S9 metabolic activation: without S9, exposure time: 24 hours | 1.38 | 1.78 | 110
concentration: 26.8 (µM), S9 metabolic activation: with S9, exposure time: 3-4 hours | 0.5 | 4.22 | 64.6
concentration: 26.8 (µM), S9 metabolic activation: without S9, exposure time: 24 hours | 1.56 | 2.6 | 72.1
concentration: 33.6 (µM), S9 metabolic activation: with S9, exposure time: 3-4 hours | 0.43 | 3.83 | 46.6
concentration: 33.6 (µM), S9 metabolic activation: without S9, exposure time: 24 hours | 1.2 | 2.84 | 76.5
concentration: 41.9 (µM), S9 metabolic activation: with S9, exposure time: 3-4 hours | – | – | 39.4
concentration: 41.9 (µM), S9 metabolic activation: without S9, exposure time: 24 hours | 1.92 | 2.24 | 80.3
concentration: 52.4 (µM), S9 metabolic activation: with S9, exposure time: 3-4 hours | – | – | 36.8
concentration: 52.4 (µM), S9 metabolic activation: without S9, exposure time: 24 hours | 1.84 | 3.08 | 80.6
concentration: 65.5 (µM), S9 metabolic activation: with S9, exposure time: 3-4 hours | 0.51 | 3.23 | 45.2
concentration: 65.5 (µM), S9 metabolic activation: without S9, exposure time: 24 hours | 1.46 | 3.26 | 63.7
concentration: 81.9 (µM), S9 metabolic activation: with S9, exposure time: 3-4 hours | 0.51 | 3.58 | 45.5
concentration: 81.9 (µM), S9 metabolic activation: without S9, exposure time: 24 hours | 1.6 | 2.86 | 69
concentration: 102 (µM), S9 metabolic activation: with S9, exposure time: 3-4 hours | 0.35 | 2.49 | 48.3
concentration: 102 (µM), S9 metabolic activation: without S9, exposure time: 24 hours | 2.04 | 2.7 | 62.3
concentration: 128 (µM), S9 metabolic activation: with S9, exposure time: 3-4 hours | – | – | 39.4
concentration: 128 (µM), S9 metabolic activation: without S9, exposure time: 24 hours | 2.1 | 3.46 | 52.2
concentration: 160 (µM), S9 metabolic activation: with S9, exposure time: 3-4 hours | 0.77 | 3.41 | 45.5
concentration: 160 (µM), S9 metabolic activation: without S9, exposure time: 24 hours | 2.98 | 3 | 44.9
concentration: 200 (µM), S9 metabolic activation: with S9, exposure time: 3-4 hours | – | – | 37.8
concentration: 200 (µM), S9 metabolic activation: without S9, exposure time: 24 hours | – | – | 37.8
